For one assay, the system named is HSkMC. As to the kind of experiment: cytotoxicity call (relative viability < 0.9). To be noted: 10 µM.
The subject of another assay is HepG2. As to the kind of experiment: cytotoxicity call (relative viability < 0.9). To be noted: 10 µM.
Another assay relates to S. aureus RN4220. As to the kind of experiment: growth inhibition call (relative growth <= 0.2). Particulars: 50 µM.

The text below walks through data of the antibiotic and cytotoxicity screens of Wong et al. (2023).

Some of the results follow.

Regarding `C[C@H](CO)N1C[C@H](C)[C@@H](CN(C)C)Oc2cc(C#CCN(C)C)ccc2S1(=O)=O`, the cytotoxicity call with HSkMC and in the assay on HepG2 was “inactive” in each case. Further, in the assay with S. aureus RN4220, the growth inhibition call is “inactive”.

Take `CNC(=O)C[C@@H]1CC[C@H]2[C@@H](COC[C@@H](O)CN2C(=O)c2ccccn2)O1`: the cytotoxicity call with HSkMC and in the assay on HepG2 was “inactive” in each case. In the assay on S. aureus RN4220, the growth inhibition call is “inactive”.

For the compound `COc1ccc2c3c(n(c2c1)C)[C@H](CO)N(C[C@]13CCN(CC1)C(=O)Nc1cccc(c1)F)S(=O)(=O)C`, the cytotoxicity call with HSkMC and with HepG2 was “inactive” each time. In addition, the growth inhibition call with S. aureus RN4220 is “inactive”.

On to `CC(=O)OCC(=O)C12OC3(CCCC3)OC1CC1C3CCC4=CC(=O)C=CC4(C)C3(F)C(O)CC12C` (centres undefined), for which the cytotoxicity call with HSkMC and with HepG2 was “inactive” in each case. Besides, the growth inhibition call with S. aureus RN4220 is “inactive”.

With `O=C(C[C@H]1CC[C@H]2[C@@H](COC[C@H](O)CN2C(=O)Nc2cccc(F)c2)O1)NCCCN1CCOCC1`, the cytotoxicity call in the assay with HSkMC and with HepG2 was “inactive” in each case. In the assay with S. aureus RN4220, the growth inhibition call is “inactive”.

Consider `C[C@H]1CN([C@@H](C)CO)C(=O)Cc2cc(NC(=O)Nc3ccc4c(c3)OCO4)ccc2O[C@@H]1CN(C)S(=O)(=O)c1cn(C)cn1`, for which the cytotoxicity call with HSkMC and in the assay with HepG2 was “inactive” throughout. Besides, the growth inhibition call in the assay with S. aureus RN4220 is “inactive”.

For `COc1ccc(S(=O)(=O)Nc2cccc3c2O[C@H](CN(C)Cc2ccc(Oc4ccccc4)cc2)[C@H](C)CN([C@H](C)CO)C3=O)cc1`, the cytotoxicity call in the assay on HSkMC and in the assay with HepG2 was “inactive” each time. Further, in the assay with S. aureus RN4220, the growth inhibition call was “inactive”.

For the compound `CC(C)NC(=O)N(C)C[C@H]1Oc2c(NC(=O)NC3CCCCC3)cccc2C(=O)N([C@H](C)CO)C[C@@H]1C`, the cytotoxicity call in the assay on HSkMC and in the assay on HepG2 was “inactive” throughout. Further, the growth inhibition call with S. aureus RN4220 was “inactive”.

Turning to `COc1ccc(NC(=O)Nc2cccc3c2O[C@H](CN(C)S(=O)(=O)c2cn(C)cn2)[C@@H](C)CN([C@H](C)CO)C3=O)cc1`, the cytotoxicity call in the assay with HSkMC and in the assay with HepG2 was “inactive” each time. Also, the growth inhibition call with S. aureus RN4220 is “inactive”.

As to `O=S(=O)(NCC[C@H]1CC[C@@H](NS(=O)(=O)c2ccccc2Cl)[C@H](CO)O1)c1ccc(F)cc1`, the cytotoxicity call with HSkMC and with HepG2 was “inactive” throughout. The growth inhibition call in the assay on S. aureus RN4220 is “inactive”.

For the compound `OC[C@H]1CC[C@@H]2O[C@H](CCc3ccc(C#CCc4ccccc4)cc3)[C@@H](n3cc(-c4ccccc4)nn3)C[C@@H]2O1`, the cytotoxicity call in the assay with HSkMC and with HepG2 was “inactive” in each case. Also, the growth inhibition call in the assay on S. aureus RN4220 is “inactive”.

With `C=C1NC(=O)CN1c1ccc(N)cc1`, the cytotoxicity call in the assay on HSkMC and in the assay on HepG2 was “inactive” in each case. For the same compound, in the assay with S. aureus RN4220, the growth inhibition call is “inactive”.

`COC(=O)c1sccc1NC(=O)Cn1cnc2c1c(=O)n(C)c(=O)n2C`: the cytotoxicity call with HSkMC and with HepG2 was “inactive” each time. Further, in the assay with S. aureus RN4220, the growth inhibition call was “inactive”.

`Cc1noc(C)c1NC(=O)Nc1ccc2c(c1)CC(=O)N([C@H](C)CO)C[C@H](C)[C@@H](CN(C)Cc1ccc(Cl)c(Cl)c1)O2`: the cytotoxicity call with HSkMC and with HepG2 was “inactive” each time. Besides, the growth inhibition call in the assay on S. aureus RN4220 was “inactive”.

Turning to `O=C(NCCO)C1=C[C@H](Oc2ccccc2I)[C@@H](O)[C@H](N(Cc2ccco2)C(=O)Cc2ccccc2)C1`, the cytotoxicity call in the assay with HSkMC and in the assay with HepG2 was “inactive” in each case. The growth inhibition call with S. aureus RN4220 is “inactive”.

`COc1cc2c3cc1Oc1cc(ccc1O)CC1c4c(cc(OC)c(O)c4Oc4ccc(cc4)CC3N(C)CC2)CC[N+]1(C)C.Cl.O.O.O.O.O.[Cl-]` (centres undefined): the cytotoxicity call in the assay with HSkMC and in the assay on HepG2 was “inactive” throughout. Besides, the growth inhibition call in the assay with S. aureus RN4220 was “inactive”.

On to `Cc1nc(S(=O)(=O)N[C@H]2CCS(=O)(=O)C2)cn1C`, for which the cytotoxicity call with HSkMC is “inactive”. Besides, the cytotoxicity call with HepG2 is “active”. Also, the growth inhibition call with S. aureus RN4220 is “inactive”.

Take `O=C(CN1CCOCC1)NCC[C@H]1CC[C@@H](NC(=O)Cc2ccccn2)[C@@H](CO)O1`: the cytotoxicity call with HSkMC and with HepG2 was “inactive” each time. Moreover, in the assay with S. aureus RN4220, the growth inhibition call is “inactive”.

For `C[C@@H]1CCCCO[C@H](CN(C)C(=O)NC2CCCCC2)[C@@H](C)CN([C@@H](C)CO)C(=O)c2cc(NC(=O)CCC(F)(F)F)ccc2O1`, the cytotoxicity call with HSkMC and in the assay with HepG2 was “inactive” throughout. Further, the growth inhibition call in the assay on S. aureus RN4220 was “inactive”.

Turning to `C[C@@H]1CN([C@@H](C)CO)S(=O)(=O)c2ccc(C#Cc3ccccc3)cc2O[C@@H]1CN(C)S(=O)(=O)c1cn(C)cn1`, the cytotoxicity call in the assay on HSkMC and with HepG2 was “inactive” in each case. Besides, the growth inhibition call with S. aureus RN4220 was “inactive”.

In the case of `COc1ccc(S(=O)(=O)N(C)C[C@@H]2Oc3ccc(NS(=O)(=O)c4ccccc4)cc3C(=O)N([C@@H](C)CO)C[C@H]2C)cc1`, the cytotoxicity call in the assay on HSkMC and with HepG2 was “inactive” in each case. For the same compound, in the assay on S. aureus RN4220, the growth inhibition call is “inactive”.

`CC(C)[C@H](NC=O)C(=O)OC[C@H](O)[C@H](O)[C@H](O)[C@H](O)COC(=O)[C@H](NC=O)C(C)C`: the cytotoxicity call in the assay on HSkMC and with HepG2 was “inactive” in each case. Also, in the assay on S. aureus RN4220, the growth inhibition call was “inactive”.

Consider `C[C@H]1CN([C@@H](C)CO)C(=O)c2cc(NS(=O)(=O)c3cn(C)cn3)ccc2O[C@@H]1CN(C)Cc1ccc(C(=O)Nc2ccccc2N)cc1`, for which the cytotoxicity call in the assay on HSkMC (human skeletal muscle cells) and in the assay on HepG2 was “inactive” throughout. Moreover, the growth inhibition call in the assay with S. aureus RN4220 is “inactive”.

In the case of `CN1CCN(C)C1=O`, the cytotoxicity call in the assay with HSkMC and in the assay with HepG2 was “inactive” throughout. The growth inhibition call in the assay on S. aureus RN4220 was “inactive”.

`C[C@@H]1CCCCO[C@@H](CN(C)C(=O)C2CCCCC2)[C@H](C)CN([C@H](C)CO)C(=O)c2cc(NC(=O)Cc3ccccc3)ccc2O1`: the cytotoxicity call in the assay with HSkMC and with HepG2 was “inactive” throughout. Moreover, the growth inhibition call with S. aureus RN4220 is “inactive”.

As for `C[C@@H]1CCCCO[C@H](CN(C)S(=O)(=O)c2cn(C)cn2)[C@@H](C)CN([C@H](C)CO)C(=O)c2cc(NS(=O)(=O)c3ccccc3)ccc2O1`, the cytotoxicity call in the assay with HSkMC and in the assay on HepG2 was “inactive” in each case. Besides, the growth inhibition call with S. aureus RN4220 is “inactive”.

Consider `COC(=O)C[C@H]1CC[C@@H]2[C@H](COC[C@H](O)CN2S(=O)(=O)c2cn(C)cn2)O1`, for which the cytotoxicity call in the assay with HSkMC and in the assay with HepG2 was “inactive” in each case. The growth inhibition call in the assay with S. aureus RN4220 is “inactive”.

For the compound `C[C@H](CO)N1C[C@H](C)[C@H](CN(C)S(=O)(=O)c2ccc(Cl)cc2)Oc2c(NC(=O)c3ccc(-c4nccs4)cc3)cccc2C1=O`, the cytotoxicity call in the assay with HSkMC is “inactive”. Also, the cytotoxicity call in the assay on HepG2 is “active”. Also, the growth inhibition call with S. aureus RN4220 was “inactive”.
